Reference: PubChem BioAssay (NCI)
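Method: 48-hour compound exposure of cells in 96-well plates, five concentrations, linear interpolation of endpoints. GI50: concentration for 50% inhibition of growth. TGI marks complete inhibition of growth.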

Test system: NCI-H322M lung
Assay: DTP human tumour cell line panel, 48 h

CN(C)c1ccc(-c2c(C#N)c(N)[nH]c(=S)c2C#N)cc1 and N#CC(C#N)=Cc1ccc(-c2ccc(-c3nc4ccccc4s3)cc2)o1 cannot be ordered by TGI: greater than 100 µM for the first, greater than 100 µM for the second.

CC#COP(=O)(OCC)OCC and CCOP(=O)(OCC)C1CCCCOC1=O (stereo unspecified) cannot be ordered by TGI: greater than 100 µM for the first, greater than 100 µM for the second.

First: CN(C)c1ccc2c(NCCCCCCNc3ccnc4cc(N(C)C)ccc34)ccnc2c1
Second: Cc1cc(N2CCCCC2)nc(N(CCNc2ccnc3cc(Cl)ccc23)Cc2ccco2)n1
The TGI of the first is 19-fold higher: 84.7 µM for the first, 4.44 µM for the second.

Oc1ccccc1/C=N/Nc1nnc2c3ccccc3c3ccccc3c2n1 and COc1cc(/C=C/C(=O)c2sc(-n3nc(-c4ccccc4)cc3-c3ccccc3)nc2C)ccc1O cannot be ordered by TGI: greater than 100 µM for the first, greater than 100 µM for the second.

CC1(Sc2ccccc2)CN(Cc2ccccc2)C1=O (stereo unspecified) and CC1=NC(=O)C(C)(c2ccccc2)N1CCc1ccccc1 (stereo unspecified) cannot be ordered by TGI: greater than 100 µM for the first, greater than 100 µM for the second.

CCOC(=O)c1ccc(C(=O)OCC)n1-c1cc2cc(c1)CSCc1cc(cc(-n3c(C(=O)OCC)ccc3C(=O)OCC)c1)CSC2 and Cc1ccc2[nH]c(C(=O)NN3C(=O)CSC34CCCCC4C)c(-c3ccccc3)c2c1 (stereo unspecified) cannot be ordered by TGI: greater than 10 µM for the first, 35.4 µM for the second.

Going from COc1ccc(-c2ccc(-c3ccc(C(=N)N)nc3)s2)cc1 to COc1ccc(C(=O)/C=C/c2ccc(OCC(=N)N)cc2)cc1OC, the TGI rises from 2.96 µM to greater than 10 µM.

N#CSc1ncnc2nc[nH]c12 and O=C(O)c1c[nH]c2c(Sc3ccccc3)nccc2c1=O cannot be ordered by TGI: greater than 100 µM for the first, greater than 100 µM for the second.

Going from COc1ccc(C(=O)/C=C/c2ccc(Cl)cc2)cc1S(=O)(=O)Nc1c(N)nc(SC)[nH]c1=O to COc1ccc(/C=C2/C(C)=NN(c3cccc(Cl)c3)/C2=N/c2nc3ccccc3s2)cc1, the TGI rises from 7.73 µM to 60.7 µM (7.9-fold).

Going from NCCCCNCCCN1CC1 to NCCCNCCCNCCCN, the TGI rises from 1.67 µM to greater than 100 µM.

COc1ccc2c(c1)CC[C@@H]1[C@@H]2CC[C@]2(C)C(=O)C3(CCCCC3)C[C@@H]12 and COc1cccc(C2=C(c3cn(C)c4ccccc34)C(=O)NC2=O)c1 cannot be ordered by TGI: greater than 100 µM for the first, greater than 25 µM for the second.

Compared with COc1cccc(OC(=O)c2ccccc2Nc2ccnc(C(F)(F)F)c2)c1, CN(C)CCNC(=O)c1cccn2c(=O)c3cc4ccccc4cc3nc12 is 21-fold lower in TGI: 51.7 µM for the first, 2.5 µM for the second.

First: CC[C@H](Nc1nc(N)nc(C)c1C#N)c1nc2cccc(CN(C)c3ncc(C(=O)NO)cn3)c2c(=O)n1-c1ccccc1
Second: C/C(=N\N)C(CN(C)C)C(c1ccccc1)c1c(O)c2ccccc2oc1=O (stereo unspecified)
The TGI of the first is lower: 6.97 µM for the first, greater than 100 µM for the second.

O=C(NC(C(F)(F)F)(C(F)(F)F)P(=O)(c1ccccc1)c1ccccc1)C(C(F)(F)F)C(F)(F)F and CC(=O)[O][Pb]([O]C(C)=O)([c]1ccccc1)[c]1ccccc1 cannot be ordered by TGI: greater than 100 µM for the first, greater than 100 µM for the second.

Going from Fc1ccc2[nH]cc(Cc3c[nH]c4ccc(F)cc34)c2c1 to CSc1nc2ccccc2c(=O)n1/N=C1\C(=O)N(CN2CCCCC2)c2ccc(Cl)cc21, the TGI rises from 44.4 µM to greater than 100 µM.

COc1ccccc1[N-]C(C1=C([O-])c2ccccc2C1=O)c1ccccc1.COc1ccccc1[N-]C(C1=C([O-])c2ccccc2C1=O)c1ccccc1.[Cu+2] (stereo unspecified) and O=C1C(Cl)=C(N/N=c2/[nH][nH]/c(=N/NC3=C(Cl)C(=O)c4ccccc4C3=O)c3ccccc23)C(=O)c2ccccc21 are within 1.5-fold of each other in TGI: 36.8 µM for the first, 33.3 µM for the second.

Going from CCOC(=O)/C(C)=C\[C@@]1(C)O[C@@H](C)[C@@](C)(OC(C)=O)[C@@H]1OC(C)=O to C=C(C)[C@@H]1CC[C@]2(C(=O)NCCCN)CC[C@]3(C)[C@H](CC[C@@H]4[C@@]5(C)CC[C@H](O)C(C)(C)[C@@H]5CC[C@]43C)[C@@H]12, the TGI falls from greater than 100 µM to 36.1 µM.

First: C=C1C(=O)C([Si](C)(C)C)=C2C=C(C)C3(CC3)C12C (stereo unspecified)
Second: C=C1C(=O)OC2CC3(C)C=CC(=O)C(=C)C3CC12 (stereo unspecified)
The TGI of the first is higher: greater than 100 µM for the first, 24.1 µM for the second.

C[C@H]1[C@H](C)N(Cc2ccccc2)P(=O)(C(O)/C=C/c2ccccc2)N1Cc1ccccc1 (stereo partly specified) and NC(=S)NNC(=O)/C(=C/c1ccc(/C=C(\NC(=O)c2ccccc2)C(=O)NNC(N)=S)cc1)NC(=O)c1ccccc1 cannot be ordered by TGI: greater than 25 µM for the first, greater than 100 µM for the second.

Going from Nc1ncnc2c1ccn2C1OC2COP(=O)(O)OC2C1O (stereo unspecified) to N=C(N)c1nn(C2OC(CO)C(O)C2O)c2nc[nH]c(=O)c12 (stereo unspecified), the TGI falls from 24.4 µM to 3.28 µM (7.4-fold).

Compared with O=C(CCl)c1ccc([N+](=O)[O-])o1, Cn1nc(Cc2ccc(Cl)cc2)n(N)c1=O is higher in TGI: 31.5 µM for the first, greater than 100 µM for the second.

First: c1ccc2[nH]c(-c3ccc(N4CCN(c5ccc(-c6nc7ccccc7[nH]6)cc5)CC4)cc3)nc2c1
Second: COc1cc2c(cc1OC)-c1ccc3cc4c(cc3c1N(CCN1CCCC1)C2)OCO4
The TGI of the first is higher: greater than 100 µM for the first, 2.61 µM for the second.

First: NC1CC(=O)c2cc(Cl)sc21 (stereo unspecified)
Second: CCCCc1ccc(Nc2nc(Cl)c3c(ncn3COCCOC(C)=O)n2)cc1
The TGI of the first is higher: greater than 100 µM for the first, 29.3 µM for the second.

Going from COc1ccc(-c2ccc(-c3ccc(C(=N)N)nc3)s2)cc1 to N#CC(C#N)=Cc1ccc(-c2ccc(-c3nc4ccccc4s3)cc2)o1, the GI50 rises from 1.59 µM to 24.8 µM (16-fold).

First: N#CSc1ncnc2nc[nH]c12
Second: N=C(N)c1nn(C2OC(CO)C(O)C2O)c2nc[nH]c(=O)c12 (stereo unspecified)
The GI50 of the first is 35-fold higher: 12.4 µM for the first, 0.354 µM for the second.

Going from COc1ccc(C(=O)/C=C/c2ccc(Cl)cc2)cc1S(=O)(=O)Nc1c(N)nc(SC)[nH]c1=O to COc1cccc(C2=C(c3cn(C)c4ccccc34)C(=O)NC2=O)c1, the GI50 rises from 2.38 µM to greater than 25 µM.

First: COc1ccc2c(c1)CC[C@@H]1[C@@H]2CC[C@]2(C)C(=O)C3(CCCCC3)C[C@@H]12
Second: Cc1ccc2[nH]c(C(=O)NN3C(=O)CSC34CCCCC4C)c(-c3ccccc3)c2c1 (stereo unspecified)
The GI50 of the first is higher: greater than 100 µM for the first, 17.1 µM for the second.

First: COc1cccc(OC(=O)c2ccccc2Nc2ccnc(C(F)(F)F)c2)c1
Second: CN(C)CCNC(=O)c1cccn2c(=O)c3cc4ccccc4cc3nc12
The GI50 of the first is 43-fold higher: 7.37 µM for the first, 0.171 µM for the second.

Going from Cc1cc(N2CCCCC2)nc(N(CCNc2ccnc3cc(Cl)ccc23)Cc2ccco2)n1 to COc1cc2c(cc1OC)-c1ccc3cc4c(cc3c1N(CCN1CCCC1)C2)OCO4, the GI50 falls from 1.81 µM to 0.801 µM (2.3-fold).

Compared with CC[C@H](Nc1nc(N)nc(C)c1C#N)c1nc2cccc(CN(C)c3ncc(C(=O)NO)cn3)c2c(=O)n1-c1ccccc1, CC(=O)[O][Pb]([O]C(C)=O)([c]1ccccc1)[c]1ccccc1 is 18-fold higher in GI50: 1.04 µM for the first, 18.6 µM for the second.

Compared with Fc1ccc2[nH]cc(Cc3c[nH]c4ccc(F)cc34)c2c1, c1ccc2[nH]c(-c3ccc(N4CCN(c5ccc(-c6nc7ccccc7[nH]6)cc5)CC4)cc3)nc2c1 is higher in GI50: 17.8 µM for the first, greater than 100 µM for the second.

First: COc1ccccc1[N-]C(C1=C([O-])c2ccccc2C1=O)c1ccccc1.COc1ccccc1[N-]C(C1=C([O-])c2ccccc2C1=O)c1ccccc1.[Cu+2] (stereo unspecified)
Second: O=C1C(Cl)=C(N/N=c2/[nH][nH]/c(=N/NC3=C(Cl)C(=O)c4ccccc4C3=O)c3ccccc23)C(=O)c2ccccc21
The GI50 of the first is 3.5-fold lower: 5.23 µM for the first, 18.1 µM for the second.

C=C(C)[C@@H]1CC[C@]2(C(=O)NCCCN)CC[C@]3(C)[C@H](CC[C@@H]4[C@@]5(C)CC[C@H](O)C(C)(C)[C@@H]5CC[C@]43C)[C@@H]12 and O=C(CCl)c1ccc([N+](=O)[O-])o1 are within 1.5-fold of each other in GI50: 17.6 µM for the first, 15.6 µM for the second.
